Results: PubChem BioAssay AID1745853 (National Center for Advancing Translational Sciences (NCATS), 2022)
This is one part of the list. These are further read-outs of the screen, such as a control signal, another cell line or another target. No call is given for them.

Legend:
Assay in all cases: Primary Screen for Target Class Profiling of Small Molecule Inhibitors of Methyltransferases
[1] = target: Glycine N-methyltransferase (Homo sapiens) (UniProt Q14749); settings: purified enzyme, MTase-Glo SAH luminescence; measured here: GNMT inhibition; at 40 µM; stronger effect = lower value
Summary of the method: (§1)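 Each enzyme was assayed with SAM and its substrate. SAH formation detected by MTase-Glo luminescence; single-point 40 uM screen[…].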

[2] = target: Guanidinoacetate N-methyltransferase (Homo sapiens) (UniProt Q14353); settings: purified enzyme, MTase-Glo SAH luminescence; measured here: GAMT inhibition; at 40 µM; stronger effect = lower value
Summary of the method: as §1

[3] = target: Histamine N-methyltransferase (Homo sapiens) (UniProt P50135); settings: purified enzyme, MTase-Glo SAH luminescence; measured here: HNMT inhibition; at 40 µM; stronger effect = lower value
Summary of the method: as §1

[4] = target: Nicotinamide N-methyltransferase (Homo sapiens) (UniProt P40261); settings: purified enzyme, MTase-Glo SAH luminescence; measured here: NNMT inhibition; at 40 µM; stronger effect = lower value
Summary of the method: as §1

[5] = target: Phenylethanolamine N-methyltransferase (Homo sapiens) (UniProt P11086); settings: purified enzyme, MTase-Glo SAH luminescence; measured here: PNMT inhibition; at 40 µM; stronger effect = lower value
Summary of the method: as §1
On the % scale 0 is the no-effect control and ±100 the full control effect.

| Compound | activity change, negative = inhibition [1] [%] | activity change, negative = inhibition [2] [%] | activity change, negative = inhibition [3] [%] | activity change, negative = inhibition [4] [%] | activity change, negative = inhibition [5] [%] |
| --- | --- | --- | --- | --- | --- |
| O=S(=O)(NC1CCCc2ccccc21)c1ccc2[nH]c3c(c2c1)CCCC3 (stereo not given) | 5.59 | 2.96 | 2.27 | -0.524 | 2 |
| CSCC[C@@H]1NC(=O)c2cc(NC(=O)c3ccc(-n4cnnn4)cc3)ccc2NC1=O | -6.48 | 0.708 | -1.09 | -2.48 | -5.05 |
| Cc1nc(C(=O)N2CC[C@H](NC(=O)c3cnccn3)C[C@H]2C(=O)N[C@@H](Cc2cccs2)C(N)=O)cs1 | -0.239 | -1.24 | 0.103 | -0.847 | -1.66 |
| CC(C)C[C@H]1C(=O)N2CCC[C@H]2[C@]2(O)O[C@](NC(=O)[C@@H]3C=C4c5cccc6[nH]c(Br)c(c56)C[C@H]4N(C)C3)(C(C)C)C(=O)N12 | -42.7 | 0.318 | 1.14 | -11.9 | -30.1 |
| O=C(CCc1nnc2n(CCc3ccccc3)c(=O)c3ccccc3n12)N1CCN(c2ccccc2)CC1 | -7.15 | 4.35 | 1.08 | -31.6 | -3.93 |
| O=C(CCc1nnc2n(CCc3ccccc3)c(=O)c3ccccc3n12)NC1CC1 | -5.83 | 6.55 | -2.21 | 1.68 | -7.02 |
| CC(/C=C/C=C(\C)C(=O)O[C@@H]1O[C@H](CO[C@@H]2O[C@H](CO)[C@@H](O)[C@H](O)[C@H]2O)[C@@H](O)[C@H](O)[C@H]1O)=C\C=C\C=C(C)\C=C\C=C(/C)C(=O)O[C@@H]1C[C@](O)(C(=O)O)C[C@@H](O)[C@H]1OC(=O)/C=C/c1ccc(O)c(O)c1 | -3.91 | 2.17 | 11.2 | -8.76 | -6.72 |
| O=C(NCCCn1ccnn1)c1cccc(S(=O)(=O)N2CCOCC2)c1 | -3.84 | -4.18 | -1.46 | -9.32 | -5.76 |
| O=C(N[C@@H]1CN(C(=O)c2[nH]nc3c2CCc2ccccc2-3)CC[C@@H]1CO)c1ccccc1 | -17 | -0.287 | 1.1 | -4.06 | -9.1 |
| COC(=O)N1CCC2(CC1)C(=O)NN=C2c1ccncc1 | -2.16 | -5.99 | 0.374 | -3.37 | -3.12 |
| CCCN1C(=O)c2cc(C(=O)NCc3ccc(OC)cc3OC)nn2CC1(C)C(=O)NC1CCCC1 (stereo not given) | 0.79 | 2.13 | -4.99 | 1.79 | 0.924 |
| Cc1ccc(CN2C(=O)c3nc4ccccc4n3CC2(C)C(=O)NCc2ccccc2)o1 (stereo not given) | 2.9 | 1.99 | 4.62 | 5.31 | 2.86 |
| CCN(CC)c1cc(CCC(=O)NCCc2ccccn2)ccn1 | -2.52 | 1.63 | -39.6 | -2.41 | 12.5 |
| COc1ccc(-c2cc(C(=O)NCc3c(C)cc(C)[nH]c3=O)c3c(c2)N(C)CCO3)cn1 | -14.7 | -9.84 | -24.1 | -14.1 | -5.64 |
| Cc1ccccc1C(OCCN(C)C)c1ccccc1 (stereo not given) | 9.46 | 13.9 | -21.3 | -8.27 | -1.17 |
| Cc1cc(C)cc(NS(=O)(=O)c2cc3[nH]c(=O)[nH]c3cc2C)c1 | 4.07 | 0 | 3.02 | -3.93 | -5.57 |
| CC1(C)CC[C@]2(C(=O)O)CC[C@]3(C)C(=CCC4[C@@]5(C)CCC(O[C@@H]6OC[C@H](O)[C@H](O)[C@H]6O[C@@H]6O[C@H](CO)[C@@H](O)[C@H](O)[C@H]6O)[C@@](C)(CO)C5CC[C@]43C)[C@@H]2C1 (stereo not given in full) | 3.28 | 1.87 | 10.8 | -10.9 | 1.83 |
| CCOC(=O)c1cc2n(n1)CC(C)(C(=O)NC1CCC(C)CC1)N(Cc1ccc3c(c1)OCO3)C2=O (stereo not given) | 0.652 | 0 | 0.891 | -3.57 | -0.097 |
| O=C1CN(Cc2ccc(Cl)cc2)CCN1c1ccc(Cl)nn1 | -4.69 | -2.28 | -2.81 | -5.93 | -6.25 |
| COC(=O)c1cccc(Nc2ncnc3ccc(C)cc23)c1 | -7.98 | 0 | 3.31 | 4.1 | -1.81 |
| CC(=O)OC1/C(C)=C/C(=O)C(OC(C)=O)C(C)(C)/C=C/C(C)C(=O)C2(OC(C)=O)CC(C)C(OC(=O)c3ccccc3)C12 (stereo not given) | 0 | -0.437 | 1.88 | -12.7 | 1.99 |
| C=C1C(=O)OC2CC3(C)C(CC12)C(C)=CC(O)C3OC(C)=O (stereo not given) | -0.37 | 1.31 | 9.87 | -10.2 | 3.37 |
| CNCc1cc(-c2ccccc2F)n(S(=O)(=O)c2cccnc2)c1 | -3.79 | 0.135 | 2.98 | -12.2 | 0.056 |
| Cc1cc2c(cc3n2CC(C)(C(=O)NC2CCCCCC2)N(c2cccc(C)c2C)C3=O)o1 (stereo not given) | -0.776 | 2.65 | 1.52 | 6.18 | 1.09 |
| CCc1cc2c(cc3n2CC(C)(C(=O)NC2CCCCC2)N(CCN(C)C2CCCCC2)C3=O)s1 (stereo not given) | 2.99 | 3.9 | 3.02 | 3.71 | 2.76 |
| O=C(CCc1nnc2n(Cc3ccccc3Cl)c(=O)c3ccccc3n12)N1CCN(Cc2ccccc2)CC1 | -27.8 | 3.52 | 2.39 | -21.3 | -2.67 |
| O=c1[nH]c2ccccc2n1C1CCN(S(=O)(=O)c2ccc(-n3cnnn3)cc2)CC1 | 1.31 | 0 | 3.54 | 5.68 | -1.01 |
